Results taken from PMC4115172.
These are yes or no findings as the source states them, for the method shown. Binding seen in cells or lysates may run through a third protein. Some binding calls cover weakened binding; strength is not graded here. Tags and fused reporters may be left off the sequences shown.

Chains of the proteins cited; added tags and fusions are not shown. Lines headed by an entry give the natural chain unless they say otherwise; changes in a name come on top. A line that says so, or that is headed by a name, gives the form on record, which may keep a tag or linker. Residues count along the entry.
UniProt Q8TD43: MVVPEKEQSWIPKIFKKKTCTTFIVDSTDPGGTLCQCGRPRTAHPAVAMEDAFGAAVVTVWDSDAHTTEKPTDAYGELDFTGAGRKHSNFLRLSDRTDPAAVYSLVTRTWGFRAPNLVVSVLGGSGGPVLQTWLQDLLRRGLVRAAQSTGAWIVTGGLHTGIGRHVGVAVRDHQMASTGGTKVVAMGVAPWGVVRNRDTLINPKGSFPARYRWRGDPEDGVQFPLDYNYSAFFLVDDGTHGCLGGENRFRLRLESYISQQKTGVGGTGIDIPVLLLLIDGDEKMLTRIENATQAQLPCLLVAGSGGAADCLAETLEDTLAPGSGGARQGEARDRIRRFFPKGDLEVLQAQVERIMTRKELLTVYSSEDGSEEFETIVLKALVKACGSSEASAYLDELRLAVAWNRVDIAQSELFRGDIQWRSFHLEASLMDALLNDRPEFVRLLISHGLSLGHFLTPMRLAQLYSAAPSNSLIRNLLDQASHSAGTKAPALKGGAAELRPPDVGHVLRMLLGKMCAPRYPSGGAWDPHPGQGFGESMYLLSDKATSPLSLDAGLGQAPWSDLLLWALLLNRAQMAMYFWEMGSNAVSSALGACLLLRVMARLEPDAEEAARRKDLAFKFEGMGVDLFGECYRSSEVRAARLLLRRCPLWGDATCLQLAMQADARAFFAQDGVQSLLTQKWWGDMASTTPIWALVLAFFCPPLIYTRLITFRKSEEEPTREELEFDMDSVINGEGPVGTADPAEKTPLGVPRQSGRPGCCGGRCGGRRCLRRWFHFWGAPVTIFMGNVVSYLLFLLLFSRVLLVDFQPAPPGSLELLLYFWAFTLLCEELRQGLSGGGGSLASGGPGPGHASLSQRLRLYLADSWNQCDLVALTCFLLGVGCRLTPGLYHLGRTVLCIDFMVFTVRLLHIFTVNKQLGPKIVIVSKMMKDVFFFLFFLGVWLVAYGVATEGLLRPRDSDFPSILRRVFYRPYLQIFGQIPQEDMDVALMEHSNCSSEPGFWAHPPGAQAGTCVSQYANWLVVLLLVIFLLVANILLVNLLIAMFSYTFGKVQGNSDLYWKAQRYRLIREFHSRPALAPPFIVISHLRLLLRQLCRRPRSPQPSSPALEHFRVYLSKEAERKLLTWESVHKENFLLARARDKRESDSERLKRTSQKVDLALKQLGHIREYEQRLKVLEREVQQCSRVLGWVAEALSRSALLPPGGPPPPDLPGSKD
GFP-tagged N174 (GFP-TRPM4b-N174): residues 1-174 of Q8TD43
VC-TRPM4a (TRPM4a fused to the C-terminal half of Venus): residues 175-1214 of Q8TD43
GFP-TRPM4b-N174 S88A (Q8TD43-1, form named): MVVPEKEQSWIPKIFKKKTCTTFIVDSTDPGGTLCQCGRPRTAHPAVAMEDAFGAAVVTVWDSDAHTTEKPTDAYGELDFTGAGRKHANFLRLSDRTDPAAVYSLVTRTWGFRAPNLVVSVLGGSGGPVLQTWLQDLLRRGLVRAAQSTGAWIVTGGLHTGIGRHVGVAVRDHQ
GFP-TRPM4b-N174 T19A (Q8TD43-1, form named): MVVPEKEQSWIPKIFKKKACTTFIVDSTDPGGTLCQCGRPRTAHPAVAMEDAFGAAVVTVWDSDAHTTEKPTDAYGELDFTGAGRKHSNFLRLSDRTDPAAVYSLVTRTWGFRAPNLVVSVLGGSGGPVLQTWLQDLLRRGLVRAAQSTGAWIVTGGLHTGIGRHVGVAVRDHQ
GFP-TRPM4b-N174 T42A (Q8TD43-1, form named): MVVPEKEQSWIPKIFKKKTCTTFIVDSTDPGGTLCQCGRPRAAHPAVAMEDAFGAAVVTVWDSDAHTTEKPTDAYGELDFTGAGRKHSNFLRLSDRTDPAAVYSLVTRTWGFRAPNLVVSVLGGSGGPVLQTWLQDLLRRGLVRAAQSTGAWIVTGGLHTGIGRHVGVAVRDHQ

Tests used:
[1] = target: T1, GST-14-3-3γ (14-3-3γ fused with Glutathione-S-transferase) (human) (UniProt P61981); test: pull-down; GST-14-3-3γ purified from bacteria incubated 2 h with lysates of transfected cells, then glutathione-Sepharose 4B beads 2 h at 4°C; blotted with anti-GFP; only the target purified
T1 sequence: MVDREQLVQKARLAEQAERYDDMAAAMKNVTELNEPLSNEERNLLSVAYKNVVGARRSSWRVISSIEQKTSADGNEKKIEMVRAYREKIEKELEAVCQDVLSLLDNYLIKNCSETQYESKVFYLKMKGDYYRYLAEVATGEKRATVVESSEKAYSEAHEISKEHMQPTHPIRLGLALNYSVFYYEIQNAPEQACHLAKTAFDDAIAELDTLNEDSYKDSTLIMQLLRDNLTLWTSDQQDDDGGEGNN

[2] = target: T2, FLAG-tagged 14-3-3γ (FLAG-14-3-3γ) (human) (UniProt P61981); test: co-IP; lysates of co-transfected HEK293T cells, precipitated with anti-FLAG (M2) and protein A/G agarose at 4°C in 50 mM Tris-HCl pH 7.4, 150 mM NaCl, 5 mM EDTA, 1% NP-40; blotted with anti-GFP
T2 sequence: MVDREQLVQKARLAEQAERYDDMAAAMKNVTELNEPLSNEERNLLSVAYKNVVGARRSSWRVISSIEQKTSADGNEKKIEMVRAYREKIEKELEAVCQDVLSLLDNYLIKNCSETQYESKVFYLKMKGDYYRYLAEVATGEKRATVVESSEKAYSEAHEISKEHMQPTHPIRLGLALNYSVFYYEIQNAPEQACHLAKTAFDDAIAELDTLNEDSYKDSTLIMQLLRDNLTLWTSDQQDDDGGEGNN

[3] = target: GFP-tagged TRPM4b (GFP-TRPM4b) (not stated (human or mouse cDNA cloned)) (UniProt Q8TD43); test: co-IP; inverse experiment: lysates of co-transfected HEK293T cells precipitated with anti-GFP antibody, blotted with anti-FLAG
[4] = target: VC-TRPM4a (TRPM4a fused to the C-terminal half of Venus) (UniProt Q8TD43); test: split reporter; BiFC with split Venus halves (VN, VC), co-transfected HEK293T cells, fixed, confocal microscopy
[5] = target: VC-TRPM4b (TRPM4b fused to the C-terminal half of Venus) (not stated (human or mouse cDNA cloned)) (UniProt Q8TD43); test: as above

In the case of “GFP-TRPM4b-N174 S88A (from UniProt Q8TD43-1 1-174) (domain or fragment)”, the binding [1] is reported as “no binding”.

With “GFP-TRPM4b-N174 T19A (from UniProt Q8TD43-1 1-174) (domain or fragment)” the binding [1] was “binds”.

With “GFP-TRPM4b-N174 T42A (from UniProt Q8TD43-1 1-174) (domain or fragment)” the binding [1] was “binds”.

For “GFP-tagged N174 (GFP-TRPM4b-N174) (from UniProt Q8TD43-1 1-174) (domain or fragment)”, the binding [2] was “binds” and the binding [1] was “binds”.

“GFP-tagged TRPM4b (GFP-TRPM4b) (from UniProt Q8TD43-1 1-1214)” was tested, and the binding [2] was “binds”.

B1: FLAG-tagged 14-3-3γ (FLAG-14-3-3γ) (protein, UniProt P61981 1-247)
chain: MVDREQLVQKARLAEQAERYDDMAAAMKNVTELNEPLSNEERNLLSVAYKNVVGARRSSWRVISSIEQKTSADGNEKKIEMVRAYREKIEKELEAVCQDVLSLLDNYLIKNCSETQYESKVFYLKMKGDYYRYLAEVATGEKRATVVESSEKAYSEAHEISKEHMQPTHPIRLGLALNYSVFYYEIQNAPEQACHLAKTAFDDAIAELDTLNEDSYKDSTLIMQLLRDNLTLWTSDQQDDDGGEGNN
For B1, the binding [3] was “binds”.

B2: VN-14-3-3γ (14-3-3γ fused to the N-terminal half of Venus) (protein, UniProt P61981 1-247)
chain: MVDREQLVQKARLAEQAERYDDMAAAMKNVTELNEPLSNEERNLLSVAYKNVVGARRSSWRVISSIEQKTSADGNEKKIEMVRAYREKIEKELEAVCQDVLSLLDNYLIKNCSETQYESKVFYLKMKGDYYRYLAEVATGEKRATVVESSEKAYSEAHEISKEHMQPTHPIRLGLALNYSVFYYEIQNAPEQACHLAKTAFDDAIAELDTLNEDSYKDSTLIMQLLRDNLTLWTSDQQDDDGGEGNN
For B2, the binding [4] was “binds weakly” and the binding [5] was “binds”.
